According to PubChem BioAssay AID652106 (National Center for Advancing Translational Sciences (NCATS), 2013):
Hit rate of the full screen: of about 370,000 compounds, about 500 (0.14%) were called active. Inconclusive means that the source gave no clear call. Such entries were picked first, then a sample of the others. The call rests on the fitted dose curve; in most records, active means well fitted activation curve with a large enough effect; inconclusive means small, poorly fitted or top-dose-only effect; inactive means no such curve, though single readings can be large or run the other way. Potencies of inconclusive entries are left out as doubtful fits.

Assay: qHTS of alpha-syn Inhibitors; further: nearly all actives have a fitted effect of over 65% in size; on growth rescue (activation): % of control where 0% means no effect
Details: Yeast expressing alpha-synuclein, BacTiter-Glo, 24 h; Potency: growth rescue unless noted; growth rescue (activation): at 46.1 µM (top of the series) unless noted
Summary of the method: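 Readout is rescue of growth in alpha-synuclein-expressing yeast, so inhibitors of toxicity appear as activators. Growth after 24 hr at 30 deg C in galactose medium is quantified by luminescence.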
Potency means the concentration at half of the fitted maximal effect; tags describe the fitted curve by direction and shape.

Compound | Potency | growth rescue (activation)
O=C(COc1ccccc1F)Nc1nc(-c2ccccn2)cs1 | inconclusive [activator, single point] | –
Cn1c(COc2cccc3ccccc23)nnc1SCC(=O)OC1CCCCC1 | inconclusive [activator, single point] | –
COc1cc(/C=N/Nc2ccc(Cl)c(C(=O)O)c2)ccc1OC(=O)c1ccccc1F | inconclusive [activator, single point] | –
CCCN(CC(=O)Nc1ccccc1C)C(=O)/C=C/c1ccc(OC)c(OC)c1 | inconclusive [activator, single point] | –
COc1cccc(-c2nn(C)c3sc(C(=O)Nc4ccc5c(c4)OCCO5)cc23)c1 | inactive | –
COc1cccc(CN2C(=O)c3ccccc3S2(=O)=O)c1 | inconclusive [activator, single point] | –
O=C(N/N=C/c1sc2ccccc2c1O)c1cccc2ccccc12 | inconclusive [activator, single point] | –
CCOc1cc(N2CCOCC2)c(OCC)cc1NC(=O)Cn1[nH]c(=O)c2ccccc2c1=O | inconclusive [activator, single point] | –
COC(=O)c1ccc(C#Cc2ccccc2)o1 | inconclusive [activator, single point] | –
CC(=O)Oc1ccccc1-c1nc(/C=C/c2ccccc2)no1 | inactive | –
CCOC(=O)c1ccc(NC2c3ccccc3C(=O)N2c2ccc(C)cn2)cc1 (stereo not given) | active: 3.98 µM | –
O=C(c1cccc(Cl)c1)N1CCC(=O)N(C(COCc2ccccc2)Cc2ccccc2)CC1 (stereo not given) | inconclusive [activator, single point] | –
CC(C)(C)c1ccc(C(=O)O/N=C(\N)c2ccccn2)cc1 | inactive | –
CC(CNC1CCCCC1)OC(=O)c1ccc([N+](=O)[O-])cc1 (stereo not given) | inactive | –
CCc1cc(=O)oc2cc(OCC(N)=O)c(Cl)cc12 | inconclusive [activator, single point] | –
COC(=O)C1=C2c3[nH]c4ccccc4c3CCN2C(=O)CC1 | inactive | –
COc1cc(OCc2ccccc2)c(C(=O)/C=C/c2ccc3c(c2)OCO3)c(OC)c1OC | inconclusive [activator, single point] | –
O=C(/C=C/c1ccc([N+](=O)[O-])cc1)Nc1cccc(S(=O)(=O)NC2=NCCCCC2)c1 | inconclusive [activator, single point] | –
O=C(Oc1ccc[nH]c1=O)c1cccc(Cl)c1 | inconclusive [activator, single point] | –
c1ccc(-c2nnc(CN3CCN(c4ccccc4)CC3)o2)cc1 | inactive | –
CC12CCC(=O)N1C(C(=O)Nc1cccc(F)c1)CS2 (stereo not given) | inactive | –
O=C(NNC(=O)C12CC3CC(CC(C3)C1)C2)c1ccccc1O | inconclusive [activator, single point] | –
NC(=O)CSc1nnc(Cc2csc(Nc3ccccc3)n2)n1Cc1ccccc1 | inactive | –
Cc1cccc(COC[C@H](Cc2ccccc2)N2CCN(C(=O)c3ccc(C(F)(F)F)cc3)CCC2=O)c1 | inconclusive [activator, single point] | –

Compound | Potency | growth rescue (activation)
Cn1cnnc1SCc1ccc(C(=O)N/N=C(\CCC(=O)O)c2ccc(C(C)(C)C)cc2)cc1 | inconclusive [activator, single point] | –
Cc1cc(C)c(NC(=O)CNC(=O)Cc2ccc(S(=O)(=O)N3CCOCC3)s2)c(C)c1 | inconclusive [activator, single point] | –
O=C(/C=C/c1ccccc1)C1=C(O)C(=O)N(CCO)C1c1cccc([N+](=O)[O-])c1 (stereo not given) | inactive | –
CCCCSc1nnc(-c2ccc(C)cc2)n1C | inactive | –
CC(C)c1ccc(OCC(=O)Nc2ccc(OC(F)(F)F)cc2)cc1 | inactive | –
CCN=C1SC(CC(=O)Nc2ccccc2)C(=O)N1CC (stereo not given) | inconclusive [activator, single point] | –
N#CC1=C(N)OC(c2ccccc2)=C(C#N)C1c1ccc2c(c1)OCO2 (stereo not given) | inconclusive [activator, single point] | –
CCC(c1nc2ccccc2[nH]1)n1c(=O)c(-c2cccs2)nc2ccccc21 (stereo not given) | inconclusive [activator, single point] | –
Cc1nc2cc(NS(=O)(=O)c3c(C)c(C)cc(C)c3C)ccc2s1 | inconclusive [activator, single point] | –
O=S1(=O)Nc2c(ccc3cccnc23)-c2ccccc21 | – | inconclusive: -79.6% [activator]
O=C(C1CC(c2ccc(F)cc2)=NO1)N1CCN(Cc2ccccc2)CC1 (stereo not given) | inconclusive [activator, single point] | –
CC(C)N(C(=O)[C@H]1C[C@H](CC(=O)NCCC2=CCCCC2)C(=O)N2CCc3c([nH]c4cc(-c5ccco5)ccc34)[C@]12C)C(C)C | inconclusive [activator, single point] | –
C[C@@H]1C=CC(=O)O[C@@H]1c1ccc(Cl)cc1 | inactive | –
CSc1ccc(/C=C/C(=O)OCC(=O)NC(C)C)cc1 | inactive | –
Cc1ccc(NC(=O)C2COc3ccccc3O2)c(C)c1 (stereo not given) | inactive | –
Cc1cccc(NCc2nnc3n2CCCCC3)c1C | inconclusive [activator, single point] | –
N#Cc1cc(-c2ccc(Cl)cc2)cnc1Sc1ccc(F)cc1 | inconclusive [activator, single point] | –
COc1ccccc1-c1csc(C(C)(O)c2ccccc2)n1 (stereo not given) | inconclusive [activator, single point] | –
CC(=O)Nc1cccc(/C(C)=N/NC(=O)c2cc(-c3ccncc3)nc3ccccc23)c1 | inconclusive [activator, single point] | –
CN(C)C(=O)c1cccc(-c2cnc3c(NC=O)cc(-c4ccccc4Cl)cn23)c1 | inconclusive [activator, single point] | –
O=C(Nc1cccc(F)c1)c1ccc2c(c1)OCO2 | inactive | –
CCCCCCSc1ccc(-c2nc3cnccn3c2NC2CCCCC2)cc1 | inactive | –
CC(C)C[C@H]1CN(CCCC[C@@H]2CNC(=O)C(=O)N2Cc2ccccc2)C(=O)C(=O)N1CC1CCCCC1 | inconclusive [activator, single point] | –
CCOc1ccccc1C(=O)NCC(=O)OCC(=O)c1c(N)n(C)c(=O)n(C)c1=O | inconclusive [activator, single point] | –

Compound | Potency | growth rescue (activation)
Cc1ccc(NC(=O)N2CCCC(c3nc(-c4ccc(F)cc4)no3)C2)cc1 (stereo not given) | inactive | –
O=C(c1ccc(-c2ccc(Cl)cc2)o1)N1CCN(c2ccc([N+](=O)[O-])cc2Cl)CC1 | inconclusive [activator, partial curve, poor fit] | –
COc1ccc(CC(=O)Nc2nnc(SCc3ccccc3)s2)cc1S(=O)(=O)N1CCOCC1 | inactive | –
Cc1ccc(O)c(-c2cc(C(F)(F)F)[nH]n2)c1 | inactive | –
CCOc1ccc(C(=O)CC(Sc2ccc(C)cc2)C(=O)O)cc1 (stereo not given) | inconclusive [activator, single point] | –
CCOC(=O)C1=C(C)Nc2nc(=S)[nH]n2C1c1ccc(Cl)cc1 (stereo not given) | inconclusive [activator, single point] | –
CCOC(=O)c1nnn2c1nc(N1CCOCC1)c1ccccc12 | inactive | –
Cc1cc(C(=O)COC(=O)COc2ccc(C#N)cc2)c(C)n1C1CC1 | inconclusive [activator, single point] | –
Nc1c(-c2ccc(Cl)cc2)cnn1-c1cccc(C(F)(F)F)c1 | inactive | –
COc1cccc(/C=N/Nc2nc(Nc3ccccc3)nc(-n3nc(C)cc3C)n2)c1O | inconclusive [activator, single point] | –
On1ccccc1=S | – | inconclusive: -73.7% [activator]
Cc1ccc2nc3c(cc(C(=O)NC4CCCCC4)c(=N)n3C3CCCCC3)c(=O)n2c1 | inconclusive [activator, single point] | –
COCCCN1CCc2[nH]c(=S)[nH]c(=O)c2C1 | inconclusive [activator, single point] | –
Cc1csc(=O)n1CC(=O)OCC(=O)c1ccc(Br)cc1 | inconclusive [activator, single point] | –
COc1ccccc1NC(=O)Cc1cccc2ccccc12 | inconclusive [activator, single point] | –
O=C(CCNc1ccc(F)c(Cl)c1)c1ccco1 | inactive | –
C/C=C\C(=O)Nc1cccc(C2=NOC3(C2)C[C@@H](C(N)=O)N(C(=O)c2ccc(Cl)cc2)C3)c1 (stereo not given in full) | inconclusive [activator, single point] | –
O=c1[nH]c(=S)c2n[nH]nc2[nH]1 | inconclusive [activator, single point] | –
O=C(COc1coc(CN2CCc3ccccc3C2)cc1=O)N1CCOCC1 | inactive | –
COc1cc(C2OCC3C(c4ccc(OC5OC(CO)C(O)C(O)C5O)c(OC)c4)OCC23)ccc1O (stereo not given) | inconclusive [activator, single point] | –
COc1ccc(C2Nc3ccc(NC(C)=O)cc3C(=O)N2Cc2cccc(Cl)c2)cc1COc1ccc(NC(C)=O)cc1 (stereo not given) | inconclusive [activator, single point] | –
NS(=O)(=O)c1ccc(N2N=C(c3ccccc3)CC2c2cccc(Br)c2)cc1 (stereo not given) | inconclusive [activator, single point] | –
